Assay results reported in patent US10501518B2 (priority 2013, dated 2019).
Part of at least one peptide drawing is inferred or uncertain, most often the ends. Starred links: 1 amine or outer side, 2 acyl side, 3 side chain; linkers in the order of their positions; H or OH if unused. Non-standard residues stand in square brackets, D forms with d. Residues, ends and D or L forms follow the SMILES beside them. *: point of attachment. X12 = O=C([C@H]1CCC[C@@H]1N[*:1])[*:2]; ACPC(1S,2S) = N[C@H]1CCC[C@@H]1C(=O)*

Tests used:
WT human PTHR-1 = target: T1, WT human PTHR-1 (Homo sapiens, UniProt Q03431); assay: cAMP GloSensor dose-response in GP-2.3 cells expressing human PTHR-1; format: cell-based; settings: Table 8; EC50 relative to PTH(1-34)
T1 construct: bioactivity of the resulting compound in full-length hPTHR-1 and a truncated version; expressed in transfected cells
T1 sequence (Q03431 27-593): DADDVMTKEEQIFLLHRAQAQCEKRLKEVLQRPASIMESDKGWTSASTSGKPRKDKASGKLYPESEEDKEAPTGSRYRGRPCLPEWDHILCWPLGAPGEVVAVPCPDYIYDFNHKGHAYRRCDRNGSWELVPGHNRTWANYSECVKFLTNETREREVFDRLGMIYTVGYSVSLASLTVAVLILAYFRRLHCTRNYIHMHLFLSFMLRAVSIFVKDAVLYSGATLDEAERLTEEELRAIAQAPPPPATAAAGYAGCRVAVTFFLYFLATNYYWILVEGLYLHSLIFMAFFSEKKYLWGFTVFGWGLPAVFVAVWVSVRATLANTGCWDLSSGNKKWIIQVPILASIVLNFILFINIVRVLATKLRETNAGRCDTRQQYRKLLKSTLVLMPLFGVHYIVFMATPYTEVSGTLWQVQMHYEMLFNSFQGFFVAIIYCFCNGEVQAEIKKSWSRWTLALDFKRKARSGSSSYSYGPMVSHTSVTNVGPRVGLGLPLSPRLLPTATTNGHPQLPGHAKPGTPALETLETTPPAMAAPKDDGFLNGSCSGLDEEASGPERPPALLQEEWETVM
Experimental: FIGS. 8A, 8B, and 8C constitute a series of graphs depicting cAMP responses in GP-2.3 cells expressing wild-type human parathyroid hormone receptor 1 (PTHR-1-WT). […] Data are means (±SEM) of n>4 experiments, each performed in duplicate.
For cAMP dose-response assays, monolayers of confluent HEK 293 cells were pre-incubated with buffer containing d-luciferin (0.5 mM) in 96 well plates at room temperature until a stable baseline level of luminescence was established (30 min). Varying concentrations of agonist were then added, and the time course of luminescence response was recorded using a Perkin Elmer plate reader following α/β-peptide addition.

delNT PTHR1 = target: T2, delNT PTHR1 (Homo sapiens, UniProt Q03431, DEL24-181); assay: cAMP-inducing potency at truncated receptor delNT PTHR1; format: cell-based; settings: Table 8; EC50 relative to PTH(1-34)
T2 construct: expressed in transfected cells
T2 sequence (Q03431 with tags, fused parts or gaps DEL24-181): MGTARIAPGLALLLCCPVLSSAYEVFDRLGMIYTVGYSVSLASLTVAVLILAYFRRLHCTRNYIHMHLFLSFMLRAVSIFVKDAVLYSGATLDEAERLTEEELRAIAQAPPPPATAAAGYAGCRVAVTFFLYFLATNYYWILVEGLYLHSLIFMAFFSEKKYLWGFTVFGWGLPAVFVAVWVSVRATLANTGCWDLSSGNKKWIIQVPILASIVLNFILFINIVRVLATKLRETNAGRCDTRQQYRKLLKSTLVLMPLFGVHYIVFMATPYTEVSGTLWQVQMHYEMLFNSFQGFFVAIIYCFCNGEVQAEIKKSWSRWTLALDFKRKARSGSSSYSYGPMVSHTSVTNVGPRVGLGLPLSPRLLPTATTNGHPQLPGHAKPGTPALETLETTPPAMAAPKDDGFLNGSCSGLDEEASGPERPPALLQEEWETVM

Fold PTH, nM (hPTHR1) (WT human PTHR-1)	Fold PTH, nM (deINT PTHR1) (delNT PTHR1)	SMILES
1.6	8	CC[C@H](C)[C@H](NC(=O)[C@H](CCC(=O)O)NC(=O)[C@H](CO)NC(=O)[C@@H](NC(=O)[C@H]1CCC[C@@H]1N)C(C)C)C(=O)N[C@@H](CCC(N)=O)C(=O)N[C@@H](CC(C)C)C(=O)N[C@@H](CCSC)C(=O)N[C@@H](Cc1c[nH]cn1)C(=O)N[C@@H](CC(N)=O)C(=O)N[C@@H](CC(C)C)C(=O)NCC(=O)N[C@@H](CCCCN)C(=O)N[C@@H](Cc1c[nH]cn1)C(=O)N[C@@H](CC(C)C)C(=O)N[C@@H](CC(N)=O)C(=O)N[C@@H](CO)C(=O)N[C@@H](CCSC)C(=O)N[C@@H](CCC(=O)O)C(=O)N[C@@H](CCCNC(=N)N)C(=O)N[C@H](C(=O)N[C@@H](CCC(=O)O)C(=O)N[C@@H](Cc1c[nH]c2ccccc12)C(=O)N[C@@H](CC(C)C)C(=O)N[C@@H](CCCNC(=N)N)C(=O)N[C@@H](CCCCN)C(=O)N[C@@H](CCCCN)C(=O)N[C@@H](CC(C)C)C(=O)N[C@@H](CCC(N)=O)C(=O)N[C@@H](CC(=O)O)C(=O)N[C@H](C(=O)N[C@@H](Cc1c[nH]cn1)C(=O)N[C@@H](CC(N)=O)C(=O)N[C@@H](Cc1ccccc1)C(N)=O)C(C)C)C(C)C [ACPC(1)] ({ACPC(1S,2S)}-VSEIQLMHNLGKHLNSMERVEWLRKKLQDVHNF-NH2; N-terminus assumed)
3.0	170	CC[C@H](C)[C@H](NC(=O)[C@H](CCC(=O)O)NC(=O)[C@H](CO)NC(=O)[C@H]1CCC[C@@H]1NC(=O)[C@@H](N)CO)C(=O)N[C@@H](CCC(N)=O)C(=O)N[C@@H](CC(C)C)C(=O)N[C@@H](CCSC)C(=O)N[C@@H](Cc1c[nH]cn1)C(=O)N[C@@H](CC(N)=O)C(=O)N[C@@H](CC(C)C)C(=O)NCC(=O)N[C@@H](CCCCN)C(=O)N[C@@H](Cc1c[nH]cn1)C(=O)N[C@@H](CC(C)C)C(=O)N[C@@H](CC(N)=O)C(=O)N[C@@H](CO)C(=O)N[C@@H](CCSC)C(=O)N[C@@H](CCC(=O)O)C(=O)N[C@@H](CCCNC(=N)N)C(=O)N[C@H](C(=O)N[C@@H](CCC(=O)O)C(=O)N[C@@H](Cc1c[nH]c2ccccc12)C(=O)N[C@@H](CC(C)C)C(=O)N[C@@H](CCCNC(=N)N)C(=O)N[C@@H](CCCCN)C(=O)N[C@@H](CCCCN)C(=O)N[C@@H](CC(C)C)C(=O)N[C@@H](CCC(N)=O)C(=O)N[C@@H](CC(=O)O)C(=O)N[C@H](C(=O)N[C@@H](Cc1c[nH]cn1)C(=O)N[C@@H](CC(N)=O)C(=O)N[C@@H](Cc1ccccc1)C(N)=O)C(C)C)C(C)C [ACPC(2)] (H-S[X12]SEIQLMHNLGKHLNSMERVEWLRKKLQDVHNF-NH2; N-terminus assumed)
126.1	130	CC[C@H](C)[C@H](NC(=O)[C@H](CCC(=O)O)NC(=O)[C@H]1CCC[C@@H]1NC(=O)[C@@H](NC(=O)[C@@H](N)CO)C(C)C)C(=O)N[C@@H](CCC(N)=O)C(=O)N[C@@H](CC(C)C)C(=O)N[C@@H](CCSC)C(=O)N[C@@H](Cc1c[nH]cn1)C(=O)N[C@@H](CC(N)=O)C(=O)N[C@@H](CC(C)C)C(=O)NCC(=O)N[C@@H](CCCCN)C(=O)N[C@@H](Cc1c[nH]cn1)C(=O)N[C@@H](CC(C)C)C(=O)N[C@@H](CC(N)=O)C(=O)N[C@@H](CO)C(=O)N[C@@H](CCSC)C(=O)N[C@@H](CCC(=O)O)C(=O)N[C@@H](CCCNC(=N)N)C(=O)N[C@H](C(=O)N[C@@H](CCC(=O)O)C(=O)N[C@@H](Cc1c[nH]c2ccccc12)C(=O)N[C@@H](CC(C)C)C(=O)N[C@@H](CCCNC(=N)N)C(=O)N[C@@H](CCCCN)C(=O)N[C@@H](CCCCN)C(=O)N[C@@H](CC(C)C)C(=O)N[C@@H](CCC(N)=O)C(=O)N[C@@H](CC(=O)O)C(=O)N[C@H](C(=O)N[C@@H](Cc1c[nH]cn1)C(=O)N[C@@H](CC(N)=O)C(=O)N[C@@H](Cc1ccccc1)C(N)=O)C(C)C)C(C)C [ACPC(3)] (H-SV[X12]EIQLMHNLGKHLNSMERVEWLRKKLQDVHNF-NH2; N-terminus assumed)
	510	CC[C@H](C)[C@H](NC(=O)[C@H]1CCC[C@@H]1NC(=O)[C@H](CO)NC(=O)[C@@H](NC(=O)[C@@H](N)CO)C(C)C)C(=O)N[C@@H](CCC(N)=O)C(=O)N[C@@H](CC(C)C)C(=O)N[C@@H](CCSC)C(=O)N[C@@H](Cc1c[nH]cn1)C(=O)N[C@@H](CC(N)=O)C(=O)N[C@@H](CC(C)C)C(=O)NCC(=O)N[C@@H](CCCCN)C(=O)N[C@@H](Cc1c[nH]cn1)C(=O)N[C@@H](CC(C)C)C(=O)N[C@@H](CC(N)=O)C(=O)N[C@@H](CO)C(=O)N[C@@H](CCSC)C(=O)N[C@@H](CCC(=O)O)C(=O)N[C@@H](CCCNC(=N)N)C(=O)N[C@H](C(=O)N[C@@H](CCC(=O)O)C(=O)N[C@@H](Cc1c[nH]c2ccccc12)C(=O)N[C@@H](CC(C)C)C(=O)N[C@@H](CCCNC(=N)N)C(=O)N[C@@H](CCCCN)C(=O)N[C@@H](CCCCN)C(=O)N[C@@H](CC(C)C)C(=O)N[C@@H](CCC(N)=O)C(=O)N[C@@H](CC(=O)O)C(=O)N[C@H](C(=O)N[C@@H](Cc1c[nH]cn1)C(=O)N[C@@H](CC(N)=O)C(=O)N[C@@H](Cc1ccccc1)C(N)=O)C(C)C)C(C)C [ACPC(4)] (H-SVS[X12]IQLMHNLGKHLNSMERVEWLRKKLQDVHNF-NH2; N-terminus assumed)
1.9	65	CSCC[C@H](NC(=O)[C@H](CO)NC(=O)[C@H](CC(N)=O)NC(=O)[C@H](CC(C)C)NC(=O)[C@H](Cc1c[nH]cn1)NC(=O)[C@H](CCCCN)NC(=O)CNC(=O)[C@H](CC(C)C)NC(=O)[C@H](CC(N)=O)NC(=O)[C@H](Cc1c[nH]cn1)NC(=O)[C@H](CCSC)NC(=O)[C@H](CC(C)C)NC(=O)[C@H](CCC(N)=O)NC(=O)[C@H]1CCC[C@@H]1NC(=O)[C@H](CCC(=O)O)NC(=O)[C@H](CO)NC(=O)[C@@H](NC(=O)[C@@H](N)CO)C(C)C)C(=O)N[C@@H](CCC(=O)O)C(=O)N[C@@H](CCCNC(=N)N)C(=O)N[C@H](C(=O)N[C@@H](CCC(=O)O)C(=O)N[C@@H](Cc1c[nH]c2ccccc12)C(=O)N[C@@H](CC(C)C)C(=O)N[C@@H](CCCNC(=N)N)C(=O)N[C@@H](CCCCN)C(=O)N[C@@H](CCCCN)C(=O)N[C@@H](CC(C)C)C(=O)N[C@@H](CCC(N)=O)C(=O)N[C@@H](CC(=O)O)C(=O)N[C@H](C(=O)N[C@@H](Cc1c[nH]cn1)C(=O)N[C@@H](CC(N)=O)C(=O)N[C@@H](Cc1ccccc1)C(N)=O)C(C)C)C(C)C [ACPC(5)] (H-SVSE[X12]QLMHNLGKHLNSMERVEWLRKKLQDVHNF-NH2; N-terminus assumed)
3.7	360	CC[C@H](C)[C@H](NC(=O)[C@H](CCC(=O)O)NC(=O)[C@H](CO)NC(=O)[C@@H](NC(=O)[C@@H](N)CO)C(C)C)C(=O)N[C@H]1CCC[C@@H]1C(=O)N[C@@H](CC(C)C)C(=O)N[C@@H](CCSC)C(=O)N[C@@H](Cc1c[nH]cn1)C(=O)N[C@@H](CC(N)=O)C(=O)N[C@@H](CC(C)C)C(=O)NCC(=O)N[C@@H](CCCCN)C(=O)N[C@@H](Cc1c[nH]cn1)C(=O)N[C@@H](CC(C)C)C(=O)N[C@@H](CC(N)=O)C(=O)N[C@@H](CO)C(=O)N[C@@H](CCSC)C(=O)N[C@@H](CCC(=O)O)C(=O)N[C@@H](CCCNC(=N)N)C(=O)N[C@H](C(=O)N[C@@H](CCC(=O)O)C(=O)N[C@@H](Cc1c[nH]c2ccccc12)C(=O)N[C@@H](CC(C)C)C(=O)N[C@@H](CCCNC(=N)N)C(=O)N[C@@H](CCCCN)C(=O)N[C@@H](CCCCN)C(=O)N[C@@H](CC(C)C)C(=O)N[C@@H](CCC(N)=O)C(=O)N[C@@H](CC(=O)O)C(=O)N[C@H](C(=O)N[C@@H](Cc1c[nH]cn1)C(=O)N[C@@H](CC(N)=O)C(=O)N[C@@H](Cc1ccccc1)C(N)=O)C(C)C)C(C)C [ACPC(6)] (H-SVSEI[X12]LMHNLGKHLNSMERVEWLRKKLQDVHNF-NH2; N-terminus assumed)
